The supplement of paper PMC12217912
Some of the results follow. Sequences were assembled here from the parent chain. Values near 0.05 are background.

B1: TEV protease; numbered along this chain (parent)
chain: MGESLFKGPRDYNPISSSICHLTNESDGHTTSLYGIGFGPFIITNKHLFRRNNGTLVVQSLHGVFKVKDTTTLQQHLVDGRDMIIIRMPKDFPPFPQKLKFREPQREERICLVTTNFQTKSMSSMVSDTSCTFPSGDGIFWKHWIQTKDGQCGSPLVSTRDGFIVGIHSASNFTNTNNYFTSVPKNFMELLTNQEAQQWVSGWRLNADSVLWGGHKVFMVKPEEPFQPVKEATQL

Variants of: B1
Assay: raw area under fraction-flipped curve 0-4 h after induction (AUC4h, not background-subtracted), DNA-recorder readout of cleavage of the substrate (dimensionless); higher = more cleavage of the substrate by the protease variant
Conditions: temperature: 34 °C; time window: 0-4 h after rhamnose induction
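Also: Bxb1 expression induced with 0.2% (w/v) L-rhamnose at OD600 near 0.5, cultures sampled hourly, flipped fraction per protease–substrate barcode pair counted by paired-end Illumina sequencing.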

Variant	area with substrate ENLYFKS	area with substrate ENLYFLS	area with substrate ENLYFPS	area with substrate ENLYFRS	area with substrate ENLYFTS	area with substrate ENLYFVS	area with substrate ENLYFFS	area with substrate ENLYFHS	area with substrate ENLYFIS	area with substrate ENLYFMS	area with substrate ENLYFNS	area with substrate ENLYFSS	area with substrate ENLYFYS	area with substrate ENLYFGS
E189A	0.0425	0.0452	0.0658	0.0609	0.0601	0.0516								
P225V				0.0636			0.0654	0.0633	0.0504	0.0778	0.0671	0.0559	0.0537	
N193G		0.0487					0.0947		0.039		0.0681	0.0662	0.0588	0.0709
